# Results from the supplement of paper PMC8728848.
# The other results are listed elsewhere or left out.
# How the values were obtained:
# Assay in all cases: glycan array binding signal (z-score within array); higher = stronger binding
# Conditions in all cases: glycan notation: IUPAC condensed, linker removed
# [1] = molecular target: Neu5Ac(a2-3)Gal(b1-4)GlcNAc(b1-2)Man(a1-3)[Neu5Ac(a2-3)Gal(b1-4)GlcNAc(b1-2)Man(a1-6)]Man(b1-4)GlcNAc(b1-4)GlcNAc
# Summary of the method: (§1)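 Columns mapping to the same glycan were averaged after glycan names were converted to IUPAC-condensed notation. The data come from 3228 arrays in the Consortium for Functional Glycomics database, limited to those with an available protein sequence. Binding is reported as a within-array Z-score averaged across arrays of one protein sequence and across linkers.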
# [2] = molecular target: Neu5Ac(a2-3)Gal(b1-4)GlcNAc(b1-2)Man(a1-3)[Neu5Ac(a2-3)Gal(b1-4)GlcNAc(b1-2)Man(a1-6)]Man(b1-4)GlcNAc(b1-4)[Fuc(a1-6)]GlcNAc
# Summary of the method: as §1
# [3] = molecular target: Neu5Ac(a2-3)Gal(b1-4)GlcNAc(b1-2)Man(a1-3)[Neu5Ac(a2-6)Gal(b1-4)GlcNAc(b1-2)Man(a1-6)]Man(b1-4)GlcNAc(b1-4)GlcNAc
# Summary of the method: as §1
# [4] = molecular target: Neu5Ac(a2-3)Gal(b1-4)GlcNAc(b1-2)[Neu5Ac(a2-3)Gal(b1-4)GlcNAc(b1-4)]Man(a1-3)[GlcNAc(b1-4)][Neu5Ac(a2-3)Gal(b1-4)GlcNAc(b1-2)[Neu5Ac(a2-3)Gal(b1-4)GlcNAc(b1-6)]Man(a1-6)]Man(b1-4)GlcNAc(b1-4)GlcNAc
# Summary of the method: as §1
# [5] = molecular target: Neu5Ac(a2-3)Gal(b1-4)GlcNAc(b1-2)[Neu5Ac(a2-3)Gal(b1-4)GlcNAc(b1-4)]Man(a1-3)[GlcNAc(b1-4)][Neu5Ac(a2-3)Gal(b1-4)GlcNAc(b1-4)Man(a1-6)]Man(b1-4)GlcNAc(b1-4)GlcNAc
# Summary of the method: as §1
# [6] = molecular target: Neu5Ac(a2-3)Gal(b1-4)GlcNAc(b1-2)[Neu5Ac(a2-3)Gal(b1-4)GlcNAc(b1-6)]Man(a1-6)[Neu5Ac(a2-3)Gal(b1-4)GlcNAc(b1-2)Man(a1-3)]Man(b1-4)GlcNAc(b1-4)GlcNAc
# Summary of the method: as §1
# [7] = molecular target: Neu5Ac(a2-3)Gal(b1-4)GlcNAc(b1-2)[Neu5Ac(a2-3)Gal(b1-4)GlcNAc(b1-6)]Man(a1-6)[Neu5Ac(a2-3)Gal(b1-4)GlcNAc(b1-2)Man(a1-3)][GlcNAc(b1-4)]Man(b1-4)GlcNAc(b1-4)GlcNAc
# Summary of the method: as §1
# [8] = molecular target: Neu5Ac(a2-3)Gal(b1-4)GlcNAc(b1-3)Gal
# Summary of the method: as §1
# [9] = molecular target: Neu5Ac(a2-3)Gal(b1-4)GlcNAc(b1-3)Gal(b1-3)GlcNAc
# Summary of the method: as §1
# [10] = molecular target: Neu5Ac(a2-3)Gal(b1-4)GlcNAc(b1-3)Gal(b1-4)GlcNAc
# Summary of the method: as §1
# [11] = molecular target: Neu5Ac(a2-3)Gal(b1-4)GlcNAc(b1-3)Gal(b1-4)GlcNAc(b1-2)Man(a1-3)[Neu5Ac(a2-3)Gal(b1-4)GlcNAc(b1-3)Gal(b1-4)GlcNAc(b1-2)Man(a1-6)]Man(b1-4)GlcNAc(b1-4)GlcNAc
# Summary of the method: as §1
# [12] = molecular target: Neu5Ac(a2-3)Gal(b1-4)GlcNAc(b1-3)Gal(b1-4)GlcNAc(b1-3)Gal(b1-4)GlcNAc
# Summary of the method: as §1
# [13] = molecular target: Neu5Ac(a2-3)Gal(b1-4)GlcNAc(b1-3)Gal(b1-4)GlcNAc(b1-3)Gal(b1-4)GlcNAc(b1-2)Man(a1-3)[Neu5Ac(a2-3)Gal(b1-4)GlcNAc(b1-3)Gal(b1-4)GlcNAc(b1-3)Gal(b1-4)GlcNAc(b1-2)Man(a1-6)]GalNAc
# Summary of the method: as §1
# [14] = molecular target: Neu5Ac(a2-3)Gal(b1-4)GlcNAc(b1-3)Gal(b1-4)GlcNAc(b1-3)GalNAc
# Summary of the method: as §1
# [15] = molecular target: Neu5Ac(a2-3)Gal(b1-4)GlcNAc(b1-3)Gal(b1-4)GlcNAc(b1-3)[Neu5Ac(a2-3)Gal(b1-4)GlcNAc(b1-3)Gal(b1-4)GlcNAc(b1-6)]GalNAc
# Summary of the method: as §1
# [16] = molecular target: Neu5Ac(a2-3)Gal(b1-4)GlcNAc(b1-3)Gal(b1-4)GlcNAc(b1-6)[Gal(b1-3)]GalNAc
# Summary of the method: as §1
# [17] = molecular target: Neu5Ac(a2-3)Gal(b1-4)GlcNAc(b1-3)Gal(b1-4)[Fuc(a1-3)]GlcNAc
# Summary of the method: as §1
# [18] = molecular target: Neu5Ac(a2-3)Gal(b1-4)GlcNAc(b1-3)GalNAc
# Summary of the method: as §1
# [19] = molecular target: Neu5Ac(a2-3)Gal(b1-4)GlcNAc(b1-3)[Neu5Ac(a2-3)Gal(b1-4)GlcNAc(b1-6)]GalNAc
# Summary of the method: as §1
binder,measurement,setting,value
PX9937A-bvu-521-23-521 (Bacteroides vulgatus) (protein) LDLAPEDYYGAGNFWKEASQPKAFMLGLHAQLRSYYDMFYTLGELRGGTQRVGTSSLNTSLNYADIRSQNISEDIPGISNWNGLYSPIMQVNHFIQEVENGCTFLDDATRSRYLGQAYGMRALYYFMLYRTFGGVPLITKVDILDGKPSADKFYVERATPEATMEFIKADINKSENYFGNNTSFDAYDWSRYATLMLKAEIYMWAAKVSITGFTATGATDLQTAKTALSGIIGHFELMDNFASIFSCDNKKNTEIIFAMPFIEGEASNDGGRFLYQDAVFLGQAYGRNGKVIEKDTLNLKGTGGVFRDEYTEDFWKTFKEGDSRRDATFMEYYMKNDNGTLSEFGCVMKKRIGTINSNDNRIYISDIPVYRYADALLMMAEIENGLNNPCASYINEVRKRAYGDTFEENKYTEGSYAENELAILQERDKEFVSEGKRWFDVLRMHDASGRSLVFSANANYPGTNPILGTEEAYKMLWPVNIGTLNVNPLLTQTPGYGKK,glycan array binding signal (z-score),[1],0.086
same,glycan array binding signal (z-score),[2],-0.188
same,glycan array binding signal (z-score),[3],-0.427
same,glycan array binding signal (z-score),[4],-0.301
same,glycan array binding signal (z-score),[5],-0.452
same,glycan array binding signal (z-score),[6],0.243
same,glycan array binding signal (z-score),[7],-0.581
same,glycan array binding signal (z-score),[8],-0.39
same,glycan array binding signal (z-score),[9],0.011
same,glycan array binding signal (z-score),[10],-0.389
same,glycan array binding signal (z-score),[11],-0.391
same,glycan array binding signal (z-score),[12],-0.363
same,glycan array binding signal (z-score),[13],-0.01
same,glycan array binding signal (z-score),[14],-0.129
same,glycan array binding signal (z-score),[15],1.52
same,glycan array binding signal (z-score),[16],-0.387
same,glycan array binding signal (z-score),[17],-0.048
same,glycan array binding signal (z-score),[18],-0.703
same,glycan array binding signal (z-score),[19],-0.163
